Data: PubChem BioAssay AID624296 (National Center for Advancing Translational Sciences (NCATS), 2012)
About 9,900 (2.8%) of roughly 350,000 compounds were called active. The inconclusive results got no clear call from the source; some entries with a clear call stand among them for comparison. Calls follow the shape of the dose curve; as a rule, active = well fitted activation curve with a large enough effect; inconclusive = small, poorly fitted or top-dose-only effect; inactive = no such curve, though single readings can be large or run the other way. No potency is given beside an inconclusive call; the fits are too rough.

Assay: A quantitative high throughput screen for small molecules that induce DNA re-replication in MCF 10a normal breast cells. Also: nearly all actives have a fitted effect of over 50% in size. As to activity, positive = re-replication: % of control where 0% means no effect.
Details: MCF 10A DNA re-replication, Hoechst nuclear intensity, 48 h; activity, positive = re-replication: at 46.1 µM (top of the series)
Potency is read from the fitted curve at half-maximal effect; tags tell the direction and shape of the fitted curve.

| Structure (SMILES) | Potency | activity, positive = re-replication |
| --- | --- | --- |
| Cc1c(C)c2ccc(OCC(=O)N3C[C@H]4C[C@@H](C3)c3cccc(=O)n3C4)c(C)c2oc1=O | inconclusive [activator, full curve, poor fit] |  |
| CCn1c(O)c(C=Nc2ccc(S(N)(=O)=O)cc2)c(=O)n(CC)c1=S | inconclusive [activator, single point] |  |
| Cc1ccc(NC(=O)CSc2nnc([C@@H](N)Cc3c[nH]c4ccccc34)o2)c(C)c1 |  | inactive: 0.564% |
| CCOC(=O)c1oc2ccc(S(=O)(=O)n3nc(-c4ccc(Cl)cc4)cc3N)cc2c1C | inconclusive [activator, single point] |  |
| COCCCn1c(N)c(C(=O)NCc2ccco2)c2nc3ccccc3nc21 | active: 16.4 µM |  |
| CCCn1ncc(CN2CCCC(C(=O)c3cccc(OC)c3)C2)c1C (stereo not drawn) | inconclusive [activator, single point] |  |
| C/C(=N\N(C)c1ccccc1)c1c(O)[nH]c(=O)[nH]c1=O | inconclusive [activator, partial curve, poor fit] |  |
| C#CCOc1ccc2c(c1)c(C(C)=O)c(C)n2Cc1ccccc1 | inconclusive [activator, full curve, poor fit] |  |
| COc1cc(/C=C/c2nc3ccccc3c(=O)n2-c2ccccc2O)ccc1O | inconclusive [activator, single point] |  |
| Cc1cccc(OP(=O)(Oc2cccc(C)c2)OC(c2ccccc2)C(F)(F)F)c1 (stereo not drawn) | inconclusive [activator, single point] |  |
| C/C(=C\c1ccc(N(C)C)cc1)[N+](=O)[O-] | active: 2.59 µM |  |
| O=C1NC(=O)C(=Cc2cn(CCOc3ccc4c(c3)OCO4)c3ccccc23)C(=O)N1 | inconclusive [activator, full curve, poor fit] |  |
| ClCCN(CCCl)c1ccc(C2=NCCc3ccccc32)cc1 | inconclusive [activator, single point] |  |
| C=C1N2CCC(CC2)C1(O)c1ccc(C)cc1 (stereo not drawn) |  | inactive: 4.8% |
| CC(C)(C)c1ccc(/C=C2\Oc3cc(OC(=O)N4CCOCC4)ccc3C2=O)cc1 | active: 14.6 µM |  |
| CCN(CC)c1ccc(/C=C2/C(=O)NC(=O)N(CC3CCCO3)C2=O)cc1 (stereo not drawn) | inconclusive [activator, single point] |  |
| CCn1c(O)c(/C=N/NC(=O)c2ccccc2)c(=O)n(CC)c1=S | inconclusive [activator, single point] |  |
| CC(C)(C)OC(=O)N1CC(O)CC1C(=O)OCC(=O)c1ccc(-c2ccccc2)cc1 (stereo not drawn) | inconclusive [activator, partial curve, poor fit] |  |
